Experiments:
[1] = substrate: CC(C)CC(=O)SCCNC(=O)CCNC(=O)[C@H](O)C(C)(C)COP(=O)(O)OP(=O)(O)OC[C@H]1O[C@@H](n2cnc3c(N)ncnc32)[C@H](O)[C@@H]1OP(=O)(O)O; assay: purified protein, by the assay type
[2] = substrate: CCCCC/C=C\C/C=C\C/C=C\C/C=C\CCCC(=O)SCCNC(=O)CCNC(=O)[C@H](O)C(C)(C)COP(=O)(O)OP(=O)(O)OC[C@H]1O[C@@H](n2cnc3c(N)ncnc32)[C@H](O)[C@@H]1OP(=O)(O)O; assay: purified protein, by the assay type
[3] = substrate: CC(C)(COP(=O)(O)OP(=O)(O)OC[C@H]1O[C@@H](n2cnc3c(N)ncnc32)[C@H](O)[C@@H]1OP(=O)(O)O)[C@@H](O)C(=O)NCCC(=O)NCCSC(=O)CC(=O)O; assay: purified protein, by the assay type
[4] = substrate: CCCCCCCCCC(=O)Nc1ncnc2c1ncn2[C@@H]1O[C@H](COP(=O)(O)OP(=O)(O)OCC(C)(C)[C@@H](O)C(=O)NCCC(=O)NCCS)[C@@H](OP(=O)(O)O)[C@H]1O; assay: purified protein, by the assay type
[5] = substrate: CCCCCCCCCCCCCCCC(=O)SCCNC(=O)CCNC(=O)[C@H](O)C(C)(C)COP(=O)(O)OP(=O)(O)OC[C@H]1O[C@@H](n2cnc3c(N)ncnc32)[C@H](O)[C@@H]1OP(=O)(O)O; assay: purified protein, by the assay type
[6] = substrate: CCCCCCCCCCCC(=O)SCCNC(=O)CCNC(=O)[C@H](O)C(C)(C)COP(=O)(O)OP(=O)(O)OC[C@H]1O[C@@H](n2cnc3c(N)ncnc32)[C@H](O)[C@@H]1OP(=O)(O)O; assay: purified protein, by the assay type
[7] = substrate: CC(=O)SCCNC(=O)CCNC(=O)[C@H](O)C(C)(C)COP(=O)(O)OP(=O)(O)OC[C@H]1O[C@@H](n2cnc3c(N)ncnc32)[C@H](O)[C@@H]1OP(=O)(O)O; assay: purified protein, by the assay type
[8] = substrate: CC(C)(COP(=O)(O)OP(=O)(O)OC[C@H]1O[C@@H](n2cnc3c(N)ncnc32)[C@H](O)[C@@H]1OP(=O)(O)O)[C@@H](O)C(=O)NCCC(=O)NCCSC(=O)c1ccccc1; assay: purified protein, by the assay type
[9] = substrate: CC(C)C(=O)SCCNC(=O)CCNC(=O)[C@H](O)C(C)(C)COP(=O)(O)OP(=O)(O)OC[C@H]1O[C@@H](n2cnc3c(N)ncnc32)[C@H](O)[C@@H]1OP(=O)(O)O; assay: purified protein, by the assay type
[10] = substrate: CCC(=O)SCCNC(=O)CCNC(=O)[C@H](O)C(C)(C)COP(=O)(O)OP(=O)(O)OC[C@H]1O[C@@H](n2cnc3c(N)ncnc32)[C@H](O)[C@@H]1OP(=O)(O)O; assay: purified protein, by the assay type
purified protein [11] = substrate: COc1c(C)c2c(c(O)c1C/C=C(\C)CCC(=O)SCCNC(=O)CCNC(=O)[C@H](O)C(C)(C)COP(=O)(O)OP(=O)(O)OC[C@H]1O[C@@H](n3cnc4c(N)ncnc43)[C@H](O)[C@@H]1OP(=O)(O)O)C(=O)OC2; assay: purified protein; details: CoA thioester hydrolysis
purified protein [12] = substrate: C/C(=C\Cc1c(O)c(C)c2c(c1O)C(=O)OC2)CCC(=O)SCCNC(=O)CCNC(=O)[C@H](O)C(C)(C)COP(=O)(O)OP(=O)(O)OC[C@H]1O[C@@H](n2cnc3c(N)ncnc32)[C@H](O)[C@@H]1OP(=O)(O)O; assay: purified protein; details: CoA thioester hydrolysis

B1: MpaH’ (Penicillium brevicompactum) (protein)
chain: MSTEKFTITEHLVPGSHIREYPGSTVNQEDVLKIHVKQYTPKREGPVPDDAITFIATHGVGLPKELYEPLWDELLDQASGFHIRAIWMADVASMNQSGIHNEDKLSMDCSWMDHARDLLLMINHFRDQMPRPLVGIGHSFGGNIITNLAYLHPRLFTTLLLLDPLIQLSPPSLGFGTDAPSAINYTLWRDDVWPSREVAIRANRAIMQGMDPRCLDRMTKHFFRDLPTPLYPDVEAIKALFGTTADSTTTPVTLTTPKYHELVAQIRQNFNARDPKTGRIEVPRDTHADMDPLVAYIPLYRPEPRSTFRRLETLRPSCLWVIAGATFLNIDEIREGVKICGSGIGGSGGVPDGRVREVVLPGFGHLMPFQEVKTVAETCIVWLQQEMDRFRQTERQWKEDRDGKSHLAVEENWYKVLKPIPSGRKKRNDKGKL
- Km [1]: 780.8 ± 372.8 µM
- kcat [1]: 0.0953 ± 0.0178 s⁻¹
- kcat/Km [1]: 117 M⁻¹ s⁻¹
- Km [2]: 316.6 ± 101.8 µM
- kcat [2]: 0.789 ± 0.0645 s⁻¹
- kcat/Km [2]: 2500 M⁻¹ s⁻¹
- Km [3]: 76.37 ± 52.11 µM
- kcat [3]: 0.216 ± 0.0216 s⁻¹
- kcat/Km [3]: 2820 M⁻¹ s⁻¹
- Km [4]: 143 ± 52.66 µM
- kcat [4]: 2.27 ± 0.155 s⁻¹
- kcat/Km [4]: 15900 M⁻¹ s⁻¹
- Km [5]: 577 ± 189.20 µM
- kcat [5]: 0.387 ± 0.0429 s⁻¹
- kcat/Km [5]: 667 M⁻¹ s⁻¹
- Km [6]: 260.2 ± 79.56 µM
- kcat [6]: 1.65 ± 0.118 s⁻¹
- kcat/Km [6]: 6350 M⁻¹ s⁻¹
- Km [7]: 722.3 ± 213.9 µM
- kcat [7]: 0.916 ± 0.102 s⁻¹
- kcat/Km [7]: 1270 M⁻¹ s⁻¹
- Km [8]: 217.9 ± 79.63 µM
- kcat [8]: 0.0649 ± 0.00513 s⁻¹
- kcat/Km [8]: 300 M⁻¹ s⁻¹
- Km [9]: 201.9 ± 45.03 µM
- kcat [9]: 0.128 ± 0.006 s⁻¹
- kcat/Km [9]: 633 M⁻¹ s⁻¹
- Km [10]: 351.5 ± 130.9 µM
- kcat [10]: 0.41 ± 0.0407 s⁻¹
- kcat/Km [10]: 1170 M⁻¹ s⁻¹
- Km (purified protein [11]): 117.5 ± 32.93 µM
- kcat (purified protein [11]): 159.6 ± 6.487 s⁻¹
- Km (purified protein [12]): 382.6 ± 153.4 µM
- kcat (purified protein [12]): 73.97 ± 8.238 s⁻¹
